# Experimental data: publication PMC6212790
# The other results are listed elsewhere or left out. At the low end of the ranking the order means little.
# Biological target: T1, GST-Rok-C97-191 (UniProt O34857)
# T1 sequence: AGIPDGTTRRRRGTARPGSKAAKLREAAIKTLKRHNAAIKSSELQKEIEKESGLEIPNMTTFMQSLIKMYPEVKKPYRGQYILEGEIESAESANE
# Assay: protein binding microarray;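 also: rank score from −0.5 (least bound) to 0.5 (best bound)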
# Details: Rok is a gene silencer of Bacillus subtilis; high values mean tight binding; most listed sequences are background and not binding sites; double strand, one strand shown
row,Sequence,binding signal [E-score]
1,TGCAGCAA,-0.041
2,GCGCAGCC,-0.254
3,CTCTAGGC,-0.195
4,AGAACAGG,-0.145
5,CGCAGCCG,-0.258
6,AGTGAACG,0.0155
7,GAGCAACC,-0.269
8,CGGCTAGA,-0.0456
9,TACATTGA,0.175
10,CGGTTTCC,-0.231
11,ACGCACGG,-0.107
12,AACATATG,0.211
13,AAGGGATG,-0.139
14,CGTAAGAG,0.0647
15,CCTTATCG,-0.0859
16,CGGTGTCA,-0.209
17,CGCGAGCA,-0.0866
18,ACAAGGAA,-0.0104
19,TATCCCGA,0.0408
20,ACCCTCAG,-0.181
21,CTGCAAAC,-0.272
22,GAAGGGAA,-0.124
23,AGTTCAGA,-0.0377
24,CGAGGGAG,-0.272

row,Sequence,binding signal [E-score]
1,ACGTAGCT,0.18
2,TCGGATCA,0.091
3,GAATCTAC,0.423
4,AGCGTTCG,-0.232
5,AGCCTCGA,-0.196
6,ATTTAAGC,0.0377
7,CGCGTCCG,-0.292
8,GCACATAA,0.00596
9,CAAATCCG,0.0185
10,CATCACAC,-0.085
11,GTGGCCTA,-0.0368
12,ATTGCCAA,0.0228
13,ATAAGCCA,0.0805
14,CAGAAATA,0.254
15,CATGTGCA,-0.0855
16,GGTTTGAA,-0.121
17,TCACTGAA,-0.0863
18,GGAGCCCA,-0.307
19,AGTTACAG,0.193
20,ATCGTCAT,-0.0298
21,CGTCGAAC,-0.122
22,GCGGAACA,-0.0136
23,GCAGTACC,-0.183
24,GCACTAAC,-0.05

row,Sequence,binding signal [E-score]
1,CACGAGGA,-0.341
2,TAATGGTA,0.325
3,CGCTTACG,-0.032
4,TAACAGAA,0.153
5,AGTAGGAA,0.186
6,CGTCCGGA,0.00304
7,AGGTCAGG,-0.156
8,CACAGTAG,0.0897
9,GAAGCTGA,0.014
10,AGAGGGTA,-0.0234
11,AATCGCCC,-0.144
12,AACTGTGT,0.0986
13,AACGATCA,-0.0485
14,CAAGTGCG,0.0974
15,ACTGAACC,0.0652
16,AAGGGGAT,-0.304
17,CTTGCTGC,-0.151
18,AGAGATAT,0.233
19,CTTAAGAA,0.0573
20,CCTCCCAA,-0.192
21,TAAGCGGA,0.00666
22,CTGTTGCC,-0.201
23,AATCTGTA,0.291
24,ATATCCAG,-0.000629

row,Sequence,binding signal [E-score]
1,GGAAAACA,-0.00212
2,ATTCTGTC,0.0202
3,AAGCTTTA,0.146
4,CGGCTTTA,-0.113
5,CGTGTAAC,0.0552
6,ACGCGGCG,-0.268
7,ATCGGTGC,-0.157
8,GAATGTGA,0.0339
9,CGGAAAGA,-0.135
10,AGGGAGGA,-0.0242
11,GTCGAAAC,-0.125
12,CGGTACGC,-0.0834
13,GATATACA,0.175
14,AGGTGCAG,-0.15
15,GAGGATTA,0.0606
16,CAAGCGTG,-0.0896
17,AACTTCCA,0.0107
18,ATGAGTGG,-0.194
19,CGGTTTAG,-0.129
20,CCACTCGG,-0.094
21,CAAGGATA,0.00112
22,CTTAGTAA,0.202
